PubChem BioAssay AID2147 (National Center for Advancing Translational Sciences (NCATS), 2009)
Values joined by “and” are separate entries in the source; they are usually repeats but may differ in a detail not shown here. Equal values may be shown once. In all, about 230,000 compounds went through this assay and about 3,600 (1.6%) were called active. The shares of active, inactive and inconclusive entries below differ from those in the screen. Calls come from the whole dose curve; as a rule, active = well fitted inhibition curve with a large enough effect (not every such curve was filed as active); inconclusive = small, poorly fitted or top-dose-only effect, or another doubt; inactive = no such curve, though single readings can be large or run the other way. Potencies beside an inconclusive call are fits to weak or partial responses and may not hold up.

These compounds were tested against Lysine-specific demethylase 4E (Homo sapiens) (UniProt B2RXH2) (assay: qHTS Assay for Inhibitors of Human Jumonji Domain Containing 2E (JMJD2E)). Conditions: JMJD2E catalytic domain, FDH-coupled NADH fluorescence (FDH is formaldehyde dehydrogenase); series mostly up to 57.1 µM.
Note: nearly all actives have a fitted effect of over 50% in size.
Potency is the fitted concentration of half-maximal effect; tags give direction and shape of the fitted curve.
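Throughout, for activity change, negative = inhibition: 0% = wells with enzyme and -100% = buffer wells without enzyme.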

UniProt B2RXH2, sequence (B2RXH2 whole entry, looked up, the tested form may be a part): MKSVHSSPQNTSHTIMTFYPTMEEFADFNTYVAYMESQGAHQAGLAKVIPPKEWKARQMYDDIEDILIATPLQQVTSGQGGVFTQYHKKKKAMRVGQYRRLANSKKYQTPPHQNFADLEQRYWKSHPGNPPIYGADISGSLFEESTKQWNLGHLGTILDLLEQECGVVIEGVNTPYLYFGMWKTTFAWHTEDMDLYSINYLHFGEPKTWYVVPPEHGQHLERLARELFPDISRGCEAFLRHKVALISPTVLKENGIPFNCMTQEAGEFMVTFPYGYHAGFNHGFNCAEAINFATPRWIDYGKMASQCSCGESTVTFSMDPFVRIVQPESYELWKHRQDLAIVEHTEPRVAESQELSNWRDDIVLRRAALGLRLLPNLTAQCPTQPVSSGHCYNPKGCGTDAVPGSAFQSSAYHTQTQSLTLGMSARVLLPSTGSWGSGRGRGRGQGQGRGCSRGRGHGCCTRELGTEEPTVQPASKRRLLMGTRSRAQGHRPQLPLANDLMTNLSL

Structure (SMILES)	Potency	activity change, negative = inhibition
N#Cc1nc(-c2cccs2)oc1NCc1ccco1	inconclusive: 28.2 µM [inhibitor, partial curve]	–
CSc1nc(N)nc(SC2C=CCCC2)c1C#N (stereo not drawn)	inactive	–
Cn1ncc(Cl)c1C(=O)NCc1cc(C(C)(C)C)n[nH]1	inactive	–
NC(=O)c1sc2nc(-c3ccco3)ccc2c1N	inconclusive: 25.1 µM [inhibitor, partial curve]	–
CCOC(=O)c1sc(-c2ccc(Br)cc2)cc1N	inconclusive: 31.6 µM [inhibitor, single point]	–
Cc1ccc2[nH]c(=O)c(C(c3nnnn3CC3CCCO3)N3CCOCC3)cc2c1 (stereo not drawn)	inconclusive: 17.8 µM [inhibitor, partial curve]	–
CC(=O)NNc1ncnc2c1cnn2-c1ccc(C)c(C)c1	inconclusive: 28.2 µM [inhibitor, single point]	–
COc1cc(/C=N\NC(=O)CN2CCOCC2)ccc1OCC(=O)Nc1ccc(C)c(C)c1	inactive	–
CCc1nc(Nc2ccc(N3CCN(C(C)=O)CC3)cc2)c2oc3ccccc3c2n1	inconclusive: 12.6 µM [inhibitor, partial curve]	–
COCCNC(=O)CN(Cc1cccs1)C(=O)CCC(=O)Nc1nccs1	inconclusive: 25.1 µM [inhibitor, single point]	–
N=C1/C(=C\c2ccc(OC(=O)c3ccco3)cc2)C(=O)N=C2SC=NN12	inconclusive: 8.91 µM [inhibitor, partial curve]	–
Cc1ccc(/C=N/NC(=O)c2ccc(C(=O)N/N=C/c3ccc(C)s3)o2)s1	inconclusive: 7.08 µM [inhibitor, single point]	–
O=C(O)CCSc1ncnc2sc(-c3ccccc3)cc12	inconclusive: 25.1 µM [inhibitor, single point]	–
O=C(Nc1ccn(Cc2ccccc2F)n1)c1ccc(COc2ccc(Br)cc2)cc1	inactive	–
Cc1nc(NS(=O)(=O)c2ccccc2)sc1C(=O)NN	inconclusive: 5.62 µM [inhibitor, partial curve]	–
Cc1cc(OCCN2CC(C)OC(C)C2)ccc1[N+](=O)[O-] (stereo not drawn)	inactive	–
Cc1ccccc1Cn1cc(NC(=O)c2cc(C3CC3)on2)cn1	inconclusive: 6.31 µM [inhibitor, single point]	–
Cc1cc(C)c2c(N)c(C(=O)NC3CC3)sc2n1	inconclusive: 22.4 µM [inhibitor, partial curve]	–
O=C(CNCCN1CCOCC1)Nc1ccccc1Sc1ccccc1	inconclusive: 4.47 µM [inhibitor, partial curve]	–
CCn1cc(C(=O)NCc2cccs2)c(=O)c2cc(S(=O)(=O)N3CCOCC3)ccc21	inconclusive: 39.8 µM [inhibitor, single point]	–
CCCc1n(CC(O)COC2CCCCC2)c2ccccc2[n+]1C (stereo not drawn)	inconclusive: 14.1 µM [inhibitor, partial curve]	–
COc1cc(/C=C/C(=O)OCC(=O)c2c(N)n(C)c(=O)n(C)c2=O)ccc1OCC#N	inconclusive: 20 µM [inhibitor, partial curve]	–
O=[N+]([O-])c1cccc(/C=N/n2c(COc3ccccc3)n[nH]c2=S)c1	inconclusive: 39.8 µM [inhibitor, single point]	–

Structure (SMILES)	Potency	activity change, negative = inhibition
CCCn1c2c(c(O)c(C(=O)NCCCN(CC)CC)c1=O)CCCC2	inconclusive: 39.8 µM [inhibitor, single point]	–
CC(C)NS(=O)(=O)c1ccc(OCC(=O)Nc2ccc(F)cc2F)cc1	inactive	–
COc1ccc(C2C3=C(CC(C)(C)CC3=O)Nc3cc4c(cc32)OCO4)cc1 (stereo not drawn)	inconclusive: 25.1 µM [inhibitor, partial curve]	–
O=C(c1cc2nc(-c3cccs3)cc(C(F)(F)Cl)n2n1)N1CCCc2ccccc21	inconclusive: 39.8 µM [inhibitor, single point]	–
COc1ccc(CCN2CC(O)=C(c3nc4ccccc4c(=O)[nH]3)C2=N)cc1OC	inconclusive: 14.1 µM [inhibitor, partial curve]	–
COC/C=C/C1=CC2=CC(=O)C(C)(OC(=O)c3cnc4ccccc4n3)C(=O)C2=CN1CCc1ccccn1 (stereo not drawn)	–	inactive: 22% [at 11.4 µM]
CCOC(=O)Cc1c(C)nc2c(-c3ccc(Cl)cc3)c(C)nn2c1C	inconclusive: 39.8 µM [inhibitor, single point]	–
O=C(NCc1ccc(Cl)cc1)c1cc(-c2cccs2)on1	inactive	–
O=C(Nc1nnc(-c2ccccc2F)s1)C1CCCO1 (stereo not drawn)	inactive	–
CCOC(=O)C1=C(N)Oc2c(c(=O)[nH]c3ccccc23)C1c1ccccc1 (stereo not drawn)	inconclusive: 39.8 µM [inhibitor, single point]	–
COc1cc(NC(=O)c2ccco2)c(OC)cc1NC(=O)Nc1ccc(Cl)cc1	inactive	–
O=C(CSc1nc2c(cnn2-c2ccc(F)cc2)c(=O)[nH]1)N1CCOCC1	inactive	–
Cc1ccc(C(=O)N/N=C/c2ccc(-c3cccc(C(F)(F)F)c3)o2)cn1	inconclusive: 31.6 µM [inhibitor, single point]	–
Cn1cc(C(F)(F)F)nc1-c1ccc(OCC(O)CNCCOc2ccc(O)c(C(N)=O)c2)cc1 (stereo not drawn)	inconclusive: 35.5 µM [inhibitor, partial curve] and inconclusive: 31.6 µM [inhibitor, partial curve]	–
COc1ccccc1N1CC(O)=C(c2nc3ccccc3c(=O)[nH]2)C1=N	inconclusive: 22.4 µM [inhibitor, partial curve]	–
O=c1c2c3c(sc2ncn1/N=C/c1ccncc1)CCCC3	inactive	–
O=C(CSc1nc2[nH]ncc2c(=O)[nH]1)c1ccc(Cl)cc1	inactive	–
CC(Cc1ccccc1)N/C=C1/CC(=O)NC1=O (stereo not drawn)	inactive	–
COc1ccc(-c2ccc([C@H]3[C@H]4C=CC[C@@H](C)[C@@H]4C(=O)N3Cc3ccccc3)c(F)c2)cc1	inconclusive: 35.5 µM [inhibitor, single point]	–
CCOc1ccc2cc(C(=O)c3ccccc3)c(=O)oc2c1	inactive	–
O=C(O)CCc1ccc(-c2cccs2)n1CC(=O)Nc1ccccc1C(F)(F)F	inconclusive: 25.1 µM [inhibitor, single point]	–
CCc1nnc(N/N=C/c2ccccc2F)n1N	inactive	–
COCCN1C(=O)c2ccccc2C(C(=O)N2CCN(c3ccccn3)CC2)C1c1ccc(F)cc1 (stereo not drawn)	inconclusive: 31.6 µM [inhibitor, single point]	–

Structure (SMILES)	Potency	activity change, negative = inhibition
COc1ccc(S(=O)(=O)c2ccc(O)cc2)cc1	inactive	–
COC(=O)C1=C(C)NC2=C(C(=O)C(C(=O)OC)C(c3ccc(OC)cc3)C2)C1c1ccccn1 (stereo not drawn)	inconclusive: 31.6 µM [inhibitor, partial curve]	–
COc1ccc(-c2nn[nH]n2)cc1OC	inactive	–
CC(C)c1cc(C(N)=O)c(NC(=O)c2cccc(COc3ccc(Br)cc3)c2)s1	inconclusive: 22.4 µM [inhibitor, partial curve]	–
CCOc1ccc2[nH]c(=O)c(CN(Cc3ccco3)C(=O)c3cccc(F)c3)cc2c1	inconclusive: 3.98 µM [inhibitor, partial curve]	–
CCOC(=O)N1CCN(Cc2nc3c(c(=O)n(C)c(=O)n3C)n2Cc2ccccc2C)CC1	inactive	–
COc1ccc2c(c1)OC/C(=C/c1cccs1)C2=O	inconclusive: 39.8 µM [inhibitor, single point]	–
Cc1cccc2cc(CN(CC3CCCO3)C(=O)c3ccncc3)c(=O)[nH]c12 (stereo not drawn)	inconclusive: 25.1 µM [inhibitor, partial curve]	–
CC(=O)NCc1cccc(CNC(C)=O)n1	inactive	–
COC(=O)c1[nH]c2ccccc2c1NC(=O)Oc1ccccc1	inconclusive: 39.8 µM [inhibitor, single point]	–
CC(C)OC(=O)CN1C(=O)S/C(=C/c2ccc(N3CCCCC3)o2)C1=O	inconclusive: 39.8 µM [inhibitor, single point]	–
COc1ccc(-c2c(C#N)c(N)nc3c2c(=O)n(C)c(=O)n3C)cc1	inconclusive: 31.6 µM [inhibitor, partial curve]	–
CC(C)(C)OC(=O)N1CC=C2C(C#N)=C(N)C(C#N)(C#N)C(c3cccs3)C2C1 (stereo not drawn)	inconclusive: 28.2 µM [inhibitor, single point]	–
CCS(=O)(=O)N1Cc2ccccc2CC1C(=O)Nc1nc2c(C)cccc2s1 (stereo not drawn)	active: 25.1 µM	–
C=CCOc1ccc(/C(O)=C2\C(=O)C(=O)N(CCCOC)C2c2ccncc2)cc1 (stereo not drawn)	inconclusive: 39.8 µM [inhibitor, single point]	–
CCCCC1=CC2=CC(=O)C(C)(OC(=O)CC)C(=O)C2=CN1CCCOC(C)C (stereo not drawn)	inconclusive: 28.2 µM [inhibitor, partial curve]	–
Cc1[nH]c2ccccc2c1C(=O)CSc1nc2ccccc2c(=O)n1-c1ccccc1F	inactive	–
CCOC(=O)N1CCN(C(=O)Cn2c(C)cc3ccccc3c2=O)CC1	inconclusive: 28.2 µM [inhibitor, partial curve]	–
O=C(NCCCn1ccnc1)c1cc2c(ccc3ccccc32)o1	inconclusive: 28.2 µM [inhibitor, partial curve]	–
CN1CCc2c(OCC(=O)N3N=C(c4cccs4)CC3c3ccc(F)cc3)cccc2C1=O (stereo not drawn)	inconclusive: 28.2 µM [inhibitor, single point]	–
COc1ccc(OC)c(NC(=O)c2nnn(Cc3ccc(Br)cc3F)c2N)c1	inconclusive: 35.5 µM [inhibitor, single point]	–
O=S(=O)(Nc1cc(C(F)(F)F)ccc1N1CCOCC1)c1ccc2ccccc2c1	inconclusive: 39.8 µM [inhibitor, single point]	–
